The compounds below were run against HCV NS3/NS4A protease (strain 1a) (Hepatitis C virus genotype 1a, UniProt P27958) (assay: biochemical). Settings: not given.
Description: Spectronhotometric Assay: Spectrophotometric assay for the HCV serine protease was performed on the inventive compounds by following the procedure described by R. Zhang et al., Analytical Biochemistry, 270 (1999) 268-275, the disclosure of which is incorporated herein by reference. The assay based on the proteolysis of chromogenic ester substrates is suitable for the continuous monitoring of HCV NS3 protease activity. The substrates were derived from the P side of the NS5A—NS5B junction sequence (Ac-DTEDVVX(Nva) (SEQ ID NO: 1), where X=A or P) whose C-terminal carboxyl groups were esterified with one of four different chromophoric alcohols (3- or 4-nitrophenol, 7-hydroxy-4-methyl-coumarin, or 4-phenylazophenol).
Protein concentrations were determined by the Biorad dye method using recombinant HCV protease standards previously quantified by amino acid analysis. Prior to assay initiation, the enzyme storage buffer (50 mM sodium phosphate pH 8.0, 300 mM NaCl, 10% glycerol, 0.05% lauryl maltoside and 10 mM DTT) was exchanged for the assay buffer (25 mM MOPS pH 6.5, 300 mM NaCl, 10% glycerol, 0.05% lauryl maltoside, 5 μM EDTA and 5 μM DTT) utilizing a Biorad Bio-Spin P-6 prepacked column.
Protease Assay: HCV protease assays were performed at 30° C. using a 200 μl reaction mix in a 96-well microtiter plate. Assay buffer conditions (25 mM MOPS pH 6.5, 300 mM NaCl, 10% glycerol, 0.05% lauryl maltoside, 5 μM EDTA and 5 μM DTT) were optimized for the NS3/NS4A heterodimer (D. L. Sali et al, ibid.)). […] Fifty μls of prewarmed protease (12 nM, 30° C.) in assay buffer, was then used to initiate the reaction (final volume 200 μl).The plates were monitored over the length of the assay (60 minutes) for change in absorbance at the appropriate wavelength (340 nm for 3-Np and HMC, 370 nm for PAP, and 400 nm for 4-Np) using a Spectromax Plus microtiter plate reader equipped with a monochrometer (acceptable results can be obtained with plate readers that utilize cutoff filters). Proteolytic cleavage of the ester linkage between the Nva and the chromophore was monitored at the appropriate wavelength against a no enzyme blank as a control for non-enzymatic hydrolysis. The evaluation of substrate kinetic parameters was performed over a 30-fold substrate concentration range (˜6-200 μM). Initial velocities were determined using linear regression and kinetic constants were obtained by fitting the data to the Michaelis-Menten equation using non-linear regression analysis (Mac Curve Fit 1.1, K. Raner). Turnover numbers (kcat) were calculated assuming the enzyme was fully active.
Evaluation of Inhibitors and Inactivators: The inhibition constants (Kj) for the competitive inhibitors Ac-D-(D-Gla)-L-I-(Cha)-C-OH (27) (SEQ ID NO: 2), Ac-DTEDVVA(Nva)-OH (SEQ ID NO: 3) and Ac-DTEDVVP(Nva)-OH (SEQ ID NO: 4) were determined experimentally at fixed concentrations of enzyme and substrate by plotting vo/vi vs. inhibitor concentration ([I]o) according to the rearranged Michaelis-Menten equation for competitive inhibition kinetics: vo/vi=1[I]o/(Ki(1+[S]o/Km)), where vo is the uninhibited initial velocity, vi is the initial velocity in the presence of inhibitor at any given inhibitor concentration ([I]o) and [S]o is the substrate concentration used. The resulting data were fitted using linear regression and the resulting slope, 1/(Ki(1[S]o/Km), was used to calculate the Ki* value.

Row | Compound | Ki [µM]
1 | CCCC(NC(=O)C1CN(Cc2ccccc2)C(=O)N1C(=O)C(NC(=O)C(NC(=O)C(CCC(=O)OC(C)(C)C)NC(=O)C(CCC(=O)OC(C)(C)C)NC(C)=O)C(C)C)C(C)C)C(=O)C(=O)NCC(=O)O (stereo not drawn) [Example 25] | > 50
2 | CCCC(NC(=O)C1CN(Cc2ccc(C(C)(C)C)cc2)C(=O)N1C(=O)C(NC(=O)C(NC(C)=O)C(C)C)C1CCCCC1)C(=O)C(=O)NCC(=O)NC(C(=O)O)c1ccccc1 (stereo not drawn) [Example 57] | 0.001 to 1
3 | CCCC(NC(=O)C1CN(Cc2ccc(C)c(C)c2)C(=O)N1C(=O)C(NC(=O)C(NC(C)=O)C(C)C)C1CCCCC1)C(=O)C(=O)NCC(=O)NC(C(=O)O)c1ccccc1 (stereo not drawn) [Example 51] | 0.001 to 1
4 | C=CCNC(=O)C(=O)C(CCC)NC(=O)C1CN(CC(=O)OCC)C(=O)N1C(=O)C(NC(=O)C(NC(=O)C(CCC(=O)OC(C)(C)C)NC(=O)C(CCC(=O)OC(C)(C)C)NC(C)=O)C(C)C)C(C)C (stereo not drawn) [Example 4] | 1 to 50
5 | C=CCNC(=O)C(=O)C(CCC)NC(=O)C1CN(CC(=O)OCC)C(=O)N1C(=O)C(NC(=O)C(NC(=O)C(CCC(=O)O)NC(=O)C(CCC(=O)O)NC(C)=O)C(C)C)C(C)C (stereo not drawn) [Example 5] | 1 to 50
6 | C=CCNC(=O)C(=O)C(CCC)NC(=O)C1CN(CC(=O)OCC)C(=O)N1C(=O)C(NC(=O)C(NC(=O)OCC(C)C)C(C)C)C(C)C (stereo not drawn) [Example 8] | > 50
7 | C=CCOC(=O)CNC(=O)C(=O)C(CCC)NC(=O)C1CN(Cc2ccc(Cl)c(Cl)c2)C(=O)N1C(=O)C(NC(=O)C(NC(=O)C(CCC(=O)O)NC(=O)C(CCC(=O)O)NC(C)=O)C(C)C)C(C)C (stereo not drawn) [Example 28] | 0.001 to 1
8 | C=CCOC(=O)CNC(=O)C(=O)C(CCC)NC(=O)C1CN(Cc2ccccc2)C(=O)N1C(=O)C(NC(=O)C(NC(=O)C(CCC(=O)O)NC(=O)C(CCC(=O)O)NC(C)=O)C(C)C)C(C)C (stereo not drawn) [Example 23] | 0.001 to 1
9 | C=CCNC(=O)C(=O)C(CCC)NC(=O)C1CN(CC(=O)OCC)C(=O)N1C(=O)C(NC(=O)C(CCC(=O)O)NC(C)=O)C(C)C (stereo not drawn) [Example 7] | > 50
10 | C=CCOC(=O)CNC(=O)C(=O)C(CCC)NC(=O)C1CN(Cc2ccccc2)C(=O)N1C(=O)C(NC(=O)C(NC(=O)OC(C)(C)C)C(C)C)C(C)C (stereo not drawn) [Example 21] | > 50
11 | CCCC(NC(=O)C1CN(Cc2ccccc2)C(=O)N1C(=O)C(NC(=O)C(NC(C)=O)C(C)C)C1CCCCC1)C(=O)C(=O)NCC(=O)NC(C(=O)O)c1ccccc1 (stereo not drawn) [Example 49] | 0.001 to 1
12 | CCCC(NC(=O)C1CN(Cc2ccc(OC)cc2)C(=O)N1C(=O)C(NC(=O)C(NC(C)=O)C(C)C)C1CCCCC1)C(=O)C(=O)NCC(=O)NC(C(=O)O)c1ccccc1 (stereo not drawn) [Example 56] | 0.001 to 1
13 | C=CCOC(=O)CNC(=O)C(=O)C(CCC)NC(=O)C1CN(Cc2ccc(Cl)c(Cl)c2)C(=O)N1C(=O)C(NC(=O)C(NC(=O)C(CCC(=O)OC(C)(C)C)NC(=O)C(CCC(=O)OC(C)(C)C)NC(C)=O)C(C)C)C(C)C (stereo not drawn) [Example 27] | > 50
14 | CCCC(NC(=O)C1CN(Cc2cccc(C)c2)C(=O)N1C(=O)C(NC(=O)C(NC(C)=O)C(C)C)C1CCCCC1)C(=O)C(=O)NCC(=O)NC(C(=O)O)c1ccccc1 (stereo not drawn) [Example 53] | 0.001 to 1
15 | C=CCNC(=O)C(=O)C(CCC)NC(=O)C1CNC(=O)N1C(=O)C(NC(=O)C(NC(=O)C(CCC(=O)OC(C)(C)C)NC(=O)C(CCC(=O)OC(C)(C)C)NC(C)=O)C(C)C)C(C)C (stereo not drawn) [Example 11] | > 50
16 | C=CCNC(=O)C(=O)C(CCC)NC(=O)C1CN(Cc2ccccc2)C(=O)N1C(=O)C(NC(=O)C(NC(=O)OC(C)(C)C)C(C)C)C(C)C (stereo not drawn) [Example 15] | > 50
17 | C=CCOC(=O)CNC(=O)C(=O)C(CCC)NC(=O)C1CN(Cc2ccc(Cl)c(Cl)c2)C(=O)N1C(=O)C(NC(=O)C(NC(=O)OC(C)(C)C)C(C)C)C(C)C (stereo not drawn) [Example 26] | > 50

Same assay, conditions: recombinant heterodimeric NS3/NS4A, chromogenic ester substrates, 30° C., pH 6.5; ranges of Ki* values; read-out: Ki*

Row | Ki [µM] | Compound
18 | > 50 | CCCC(NC(=O)C1CN(Cc2ccc(Cl)cc2)C(=O)N1C(=O)C(NC(=O)OC(C)(C)C)C1CCCCC1)C(=O)C(=O)NCC(=O)N[C@H](C(=O)O)c1ccccc1 (stereo partly drawn) [Example 42]
19 | > 50 | C=CCNC(=O)C(=O)C(CCC)NC(=O)C1CNC(=O)N1C(=O)C(NC(=O)OC(C)(C)C)C(C)C (stereo not drawn) [Example 13]
20 | > 50 | CCCC(NC(=O)C1CN(Cc2cccc(Br)c2)C(=O)N1C(=O)C(NC(=O)OCC(C)C)C1CCCCC1)C(=O)C(=O)NCC(=O)N[C@H](C(=O)O)c1ccccc1 (stereo partly drawn) [Example 45]
21 | > 50 | CCCC(NC(=O)C1CN(Cc2cccc(Br)c2)C(=O)N1C(=O)C(NC(=O)OC(C)(C)C)C1CCCCC1)C(=O)C(=O)NCC(=O)N[C@H](C(=O)OCc1ccccc1)c1ccccc1 (stereo partly drawn) [Example 32]
22 | 1 to 50 | CCCC(NC(=O)C1CN(Cc2ccc(Cl)c(Cl)c2)C(=O)N1C(=O)C(NC(=O)OC(C)(C)C)C1CCCCC1)C(=O)C(=O)NCC(=O)N[C@H](C(N)=O)c1ccccc1 (stereo partly drawn) [Example 30]
23 | > 50 | C=CCNC(=O)C(=O)C(CCC)NC(=O)[C@@H]1CN(CCCC(=O)OCC)C(=O)N1C(=O)OCc1ccccc1 (stereo partly drawn) [Example 2]
24 | > 50 | CCCC(NC(=O)C1CN(Cc2ccc(Cl)cc2)C(=O)N1C(=O)C(NC(=O)OCC(C)C)C1CCCCC1)C(=O)C(=O)NCC(=O)N[C@H](C(=O)OCc1ccccc1)c1ccccc1 (stereo partly drawn) [Example 38]
25 | 1 to 50 | CCCC(NC(=O)C1CN(Cc2cccc(Cl)c2)C(=O)N1C(=O)C(NC(=O)OC(C)(C)C)C1CCCCC1)C(=O)C(=O)NCC(=O)N[C@H](C(=O)OCc1ccccc1)c1ccccc1 (stereo partly drawn) [Example 34]
26 | > 50 | CCCC(NC(=O)C1CN(Cc2ccc(Cl)c(Cl)c2)C(=O)N1C(=O)C(NC(=O)OCC(C)C)C1CCCCC1)C(=O)C(=O)NCC(=O)N[C@H](C(N)=O)c1ccccc1 (stereo partly drawn) [Example 35]
27 | > 50 | C=CCNC(=O)C(=O)C(CCC)NC(=O)C1CNC(=O)N1C(=O)C(N)C(C)C (stereo not drawn) [Example 14]
28 | > 50 | CCCC(NC(=O)C1CN(Cc2cccc(Cl)c2)C(=O)N1C(=O)C(NC(=O)OCC(C)C)C1CCCCC1)C(=O)C(=O)NCC(=O)N[C@H](C(=O)O)c1ccccc1 (stereo partly drawn) [Example 47]
29 | > 50 | C=CCOC(=O)CNC(=O)C(=O)C(CCC)NC(=O)C1CN(Cc2ccccc2)C(=O)N1C(=O)C(NC(=O)OC(C)(C)C)C(C)C (stereo not drawn) [Example 19]
30 | 1 to 50 | CCCC(NC(=O)C1CN(Cc2ccc(Cl)cc2)C(=O)N1C(=O)C(NC(=O)OC(C)(C)C)C1CCCCC1)C(=O)C(=O)NCC(=O)N[C@H](C(=O)OCc1ccccc1)c1ccccc1 (stereo partly drawn) [Example 33]
31 | 1 to 50 | CCCC(NC(=O)C1CN(Cc2ccccc2)C(=O)N1C(=O)C(NC(=O)OCC(C)C)C1CCCCC1)C(=O)C(=O)NCC(=O)N[C@H](C(=O)O)c1ccccc1 (stereo partly drawn) [Example 48]
32 | > 50 | C=CCOC(=O)CNC(=O)C(=O)C(CCC)NC(=O)C1CN(Cc2ccccc2)C(=O)N1C(=O)C(N)C(C)C (stereo not drawn) [Example 20]
33 | > 50 | CCCC(NC(=O)C1CN(Cc2ccc(Br)cc2)C(=O)N1C(=O)C(NC(=O)OC(C)(C)C)C1CCCCC1)C(=O)C(=O)NCC(=O)N[C@H](C(=O)O)c1ccccc1 (stereo partly drawn) [Example 40]
34 | 1 to 50 | CCCC(NC(=O)C1CN(Cc2ccc(C)c(C)c2)C(=O)N1C(=O)C(NC(=O)OCC(C)C)C1CCCCC1)C(=O)C(=O)NCC(=O)N[C@H](C(=O)O)c1ccccc1 (stereo partly drawn) [Example 50]
35 | > 50 | CCCC(NC(=O)C1CN(Cc2ccc(Cl)cc2)C(=O)N1C(=O)C(NC(=O)OCC(C)C)C1CCCCC1)C(=O)C(=O)NCC(=O)N[C@H](C(=O)O)c1ccccc1 (stereo partly drawn) [Example 46]
36 | > 50 | CCCC(NC(=O)C1CN(Cc2cccc(Cl)c2)C(=O)N1C(=O)C(NC(=O)OC(C)(C)C)C1CCCCC1)C(=O)C(=O)NCC(=O)N[C@H](C(=O)O)c1ccccc1 (stereo partly drawn) [Example 43]

Source: patent US6838475B2, “Imidazolidinones as NS3-serine protease inhibitors of hepatitis C virus” (Schering Corporation, priority 2000, dated 2005)
